One experiment has as its system KB-3-1. The experiment in a line: growth inhibition relative to DMSO control (SRB); cervical cancer cells: KB-3-1 is the parent and KB-V1 overexpresses MDR1; SRB is the sulforhodamine B stain; higher = more growth inhibition. The settings on record: 1 µM; 72 h.
Another experiment concerns KB-V1. The description is as above. The settings on record: 1 µM; 72 h.

Where a name gives a salt, the structure may show the parent alone. This is one part of the list. Repeats are few or missing, and single values can be far off.

This passage reports growth inhibition results from the supplement of paper PMC7266297.
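Also: Read-out is SRB optical density at 490 nm, with the control being wells given 0.5% DMSO vehicle, and compound added one day after cells were plated.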

For the compound `CN(C)[C@@H](CCOc1cccc2ccccc12)c1ccccc1` [Dapoxetine HCl], the growth inhibition is 45.6% in the experiment with KB-3-1 and 23% in the experiment on KB-V1.
The corresponding values for `CC(C)n1c(/C=C/C(O)CC(O)CC(=O)O)c(-c2ccc(F)cc2)c2ccccc21` (stereo not given) [Fluvastatin Sodium] are 51.5% and 22.3%.
For `CS(=O)(=O)c1cccc(CNc2nc(Nc3ccc4c(c3)CCC(=O)N4)ncc2C(F)(F)F)c1`, in that order: 41.9% and 21.3%.
For `CNCCC(Oc1ccc(C(F)(F)F)cc1)c1ccccc1` (stereo not given) [Fluoxetine HCl], in that order: 11.8% and 35.4%.
For the compound `CC(C)OC(=O)C1=CN(C(=O)c2ccc(F)c(F)c2)CC(C)(C)c2c1[nH]c1ccccc21`, the growth inhibition in the experiment with KB-3-1 and in the experiment with KB-V1 was under 0% in each case.
Take `COc1cc(NC(=O)c2ccccn2)ccc1Cl`: the growth inhibition was 18.3% in the experiment with KB-3-1 and 6.7% with KB-V1.
As to `Nc1nccc2c1ncn2C1C=C(CO)C(O)C1O` (stereo not given) [3-Deazaneplanocin A (DZNeP)], the results for the growth inhibition with KB-3-1 and in the experiment with KB-V1 were 65.7% and 35.2%, respectively.
The corresponding values for `Cc1ccc(C(=O)Nc2cccc(C(F)(F)F)c2)cc1Nc1nc(-c2cccnc2)nc2c1cnn2C` are 8.14% and 10.3%.
The corresponding values for `CC(C)(C)c1ccc(C(=O)CCCN2CCC(OC(c3ccccc3)c3ccccc3)CC2)cc1` [Ebastine] are 33.2% and 16.9%.
The corresponding values for `Oc1ccc(/C=C/c2cc(O)cc(O)c2)cc1` [Resveratrol] are 13.6% and 34.7%.
Take `O=C(NCCCNc1nc(Nc2cccc(NC(=O)N3CCCC3)c2)ncc1I)c1cccs1`: the growth inhibition in the experiment with KB-3-1 was found to be 83.6%; with KB-V1, 60.4%.
The corresponding values for `Cc1cc(C)nc(NS(=O)(=O)c2ccc(NC(=S)NC(=O)COc3ccc(Br)cc3Cl)cc2)n1` are 0.442% and under 0%.
Turning to `CO[C@H]1/C=C\C=C(/C)C(=O)NC2=CC(=O)C(NCCN(C)C)=C(C[C@@H](C)C[C@H](OC)[C@H](O)[C@@H](C)/C=C(\C)[C@@H]1OC(N)=O)C2=O` [17-DMAG (Alvespimycin) HCl], the growth inhibition with KB-3-1 was 90.8%; in the experiment with KB-V1, 63%.
The corresponding values for `O=C(NOCC(O)CO)c1cc(Br)c(F)c(F)c1Nc1ccc(I)cc1F` (stereo not given) are 40.9% and 20.8%.
Regarding `CC(=O)O[C@]1(C(C)=O)CC[C@H]2[C@@H]3C=C(Cl)C4=CC(=O)[C@@H]5C[C@@H]5[C@]4(C)[C@H]3CC[C@@]21C` [Cyproterone Acetate], the growth inhibition in the experiment on KB-3-1 and in the experiment with KB-V1 was 20.8% throughout.
In the case of `CCCCc1nc(Cl)c(CO)n1Cc1ccc(-c2ccccc2-c2nnn[nH]2)cc1` [Losartan Potassium (DuP 753)], the growth inhibition in the experiment on KB-3-1 is 12.9%; with KB-V1, 34.5%.
The corresponding values for `CC(=O)SCC(Cc1ccccc1)C(=O)NCC(=O)OCc1ccccc1` (stereo not given) [Racecadotril] are 31.3% and 5.32%.
For `Cc1ccc(C(=O)N(CCCN)[C@@H](c2nc3cc(Cl)ccc3c(=O)n2Cc2ccccc2)C(C)C)cc1`, in that order: 98.7% and 93.7%.
The corresponding values for `CC1=C(C(=O)OC(C)C)C(c2cccc([N+](=O)[O-])c2)C(C(=O)OC2CN(C(c3ccccc3)c3ccccc3)C2)=C(N)N1` (stereo not given) [Azelnidipine] are under 0% and 34.2%.
In the case of `CC(C)(C)c1cc(/C=C(\C#N)C(N)=S)cc(C(C)(C)C)c1O` [Tyrphostin AG 879], the figures for the growth inhibition in the experiment on KB-3-1 and in the experiment on KB-V1 were 21% and 3.93%, respectively.
For `Cc1onc(-c2ccccc2)c1-c1ccc(S(N)(=O)=O)cc1` [Valdecoxib], in that order: 23% and 7.06%.
For `CN(C)C1CCN(C(=O)c2ccc(NC(=O)Nc3ccc(-c4nc(N5CCOCC5)nc(N5CCOCC5)n4)cc3)cc2)CC1`, in that order: 65.2% and 42.7%.
For `CC(C)c1cnn2c(NCc3ccccc3)cc(NCCCCCCN)nc12`, in that order: 21.5% and 13.5%.
Turning to `CCN(Cc1ccncc1)C(=O)C(CO)c1ccccc1` (stereo not given) [Tropicamide], the growth inhibition in the experiment with KB-3-1 came out at 47.1%; with KB-V1 it was 22.3%.
`CC(C(=O)O)c1cccc(C(=O)c2ccccc2)c1` (stereo not given) [Ketoprofen]: the growth inhibition is 35.3% in the experiment on KB-3-1 and 12.2% with KB-V1.
`CN(C)Cc1cccc(N/C(=C2\C(=O)Nc3cc(C(N)=O)ccc32)c2ccccc2)c1`: the values for the growth inhibition in the experiment on KB-3-1 and in the experiment with KB-V1 were 17.4% and 8.08%, respectively.
For `CC(C)(O)[C@H]1CC[C@@](C)([C@H]2[C@@H](O)C[C@@]3(C)[C@@H]4C[C@H](O[C@@H]5O[C@H](CO)[C@@H](O)[C@H](O)[C@H]5O)[C@H]5C(C)(C)[C@@H](O[C@@H]6OC[C@@H](O)[C@H](O)[C@H]6O)CC[C@@]56C[C@@]46CC[C@]23C)O1` [Astragaloside A], the growth inhibition in the experiment with KB-3-1 was under 0%; in the experiment on KB-V1 it was 25.2%.
The corresponding values for `CCOC(=O)C1=C(N)Oc2ccc(Br)cc2C1C(C#N)C(=O)OCC` (stereo not given) are 15.8% and 38%.
The corresponding values for `CCCCc1nc2cc(/C=C/C(=O)NO)ccc2n1CCN(CC)CC` [Pracinostat (SB939)] are 87.5% and 80%.
As for `CC(C)[C@H]1CC[C@H](C(=O)N[C@H](Cc2ccccc2)C(=O)O)CC1` [Nateglinide], the results for the growth inhibition in the experiment on KB-3-1 and with KB-V1 were under 0% and 3.19%, respectively.
